Data reported in the RNAGym collection of RNA variant scans (doi:10.1093/nar/gkz1192).
Read counts are not given, so values of variants with three or more changes are uncertain.

B1: CPEB3 Ribozyme (parent)
chain: UAACAGGGGGCCACAGCAGAAGCGUUCACGUCGCAGCCCCUGUCAGAUUCUGGUGAAUCUGCGAAUUCUGCUGUAUAUCUC

Variants of: B1
Assay: self-cleavage, relative activity (ratio to wild type); higher = more cleavage; in vitro, sequencing
How it was run: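 After error-prone PCR and barcoding, CPEB3 ribozyme mutant libraries were transcribed with T7 RNA polymerase at 37°C for 5 hours, then given 15 min with DNase I before an EDTA stop, and they cleaved during both steps. Reverse transcription with template switching preceded Illumina sequencing. Relative activity divides a variant's cleaved/total read fraction by the unmutated ribozyme's. At least 5 reads were required per variant, and three batches were averaged.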

| Variant | self-cleavage |
| --- | --- |
| A2G G63U U66C U78C | 0.16 |
| A2U U41G U48C G70A | 0.1 |
| A3C A13G A15G U49A | 0.36 |
| A2G U43A A56U | 0.67 |
| A2U A13C U72A | 0.35 |
| A2G U26A A35U | 0.28 |
| A2U A3G U25C A47G A64G U76A | 0.14 |
| A3C G10A U26C U31C C44U U78C | 0.07 |
| A3C G8A A18G A47G G63A A64G U72C | 0.04 |
| A2G U25A A57G | 0.15 |
| A3C G8C G10C U26C A57G U69C | 0.06 |
| A2U C38U A57G U74A U80C | 0.33 |
| A3C G6C U26C U69C | 0.12 |
| A2U A35G U43C U58C | 0.74 |
| A3C A18G U80C | 1.03 |
| A2U A20G U43C | 0.18 |
| A2G U26C U31C U43A U54C | 0.41 |
| A2G U41A U67C | 0.04 |
| A2U A15G U43C U51A A64U U72C U78C | 0.13 |
| A2U A5G U41C U54C A75G | 0.3 |
| A2G U67G U72A | 0.19 |
| A2U C23U U67C | 0.17 |
| A2U C11U G24A U31A U43C G46C | 0.09 |
| A2G U41C U58C | 0.15 |

| Variant | self-cleavage |
| --- | --- |
| A2U G33A U43A U74A | 0.42 |
| A2U G9U U43A A57U | 0.38 |
| A3C A20U A47G U58C U66C | 0.46 |
| A2U A20G A56G | 0.89 |
| A2G U26A U43A A45G A64G U80C | 0.32 |
| A2U A15U U66A G73C | 0.51 |
| A2U U48C U80A | 0.46 |
| A2U A5G A20U U72G | 0.27 |
| A2G U31C G53U U72C | 0.44 |
| A2U U41C U80C | 1.03 |
| A2U A13G A21G U66C A75G | 0.81 |
| A2G U25C A35U C38A A57G A64U U78G | 0 |
| A2G U43C U69C | 0.5 |
| A2U G24A C50A | 0.07 |
| A2U A15G A18U A21G U54C U69C U76C | 0.13 |
| A2U A5G A13G U54C | 0.43 |
| A2U C50A U66C | 0.23 |
| A3C A20G U31G U58A | 0.28 |
| A2U C34A A47G U60C | 0.17 |
| A2U U41C U60C A77U | 0.52 |
| A2U A13U A28U G73C | 0.71 |
| A2G U69C U74C | 0.64 |
| A2G U25A A47U U49A A65U U67A U72A | 0.06 |
| A2U A15U A18G | 0.16 |

| Variant | self-cleavage |
| --- | --- |
| A2G U43C U54C G63C | 0.58 |
| A2G U26C A45U A65G U67C | 0.15 |
| A2G U26C C39U U43C U51A U78C | 0.27 |
| A2U A28G U78A | 0.77 |
| A2G U41C U66C U72C | 0.18 |
| A2U A13U A18U U51C U78A | 0.12 |
| A2U G6U A28U A45U C62G U72C | 0.06 |
| A2U G8C C11A A35G U51C C62U U72C | 0.13 |
| A2G U43C G63U U67C | 0.13 |
| A2U C29U A35U U54C | 0.3 |
| A2U U25C A77G U78A | 0.26 |
| A2U A64G U80C | 1.13 |
| A3C C23U A45U | 0.18 |
| A2U A18G U58A U78C | 0.15 |
| A3C A15G U25A A64G A75G U80C | 0.11 |
| A2G G10C U25G | 0.26 |
| A2U C11U A21G G30A U43C U74C U80C | 0.06 |
| A2U U26G U41C | 0.38 |
| A3C A13G A21G C29U G30C A35G U58C | 0.54 |
| A2U A20G A21G A35U A64G U72A | 0.09 |
| A2U A5G A13U U41C U80C | 0.94 |
| A2U A18G U60C A64U | 0.17 |
| A3C A20G A21G C32A A64G | 0.02 |
| A2U C17U A18U U41C A65G U80C | 0.06 |

| Variant | self-cleavage |
| --- | --- |
| A2G U74C U80C | 1.16 |
| A2U A3G A56G | 1.03 |
| A2U A20U G52C U74C | 0.55 |
| A2U A21G U41A U66C | 0.05 |
| A2G U26C U67C | 0.43 |
| A2U G7A A56G | 0.42 |
| A2U A20U U25C | 0.38 |
| A2U A28G A35C A47G U74C | 0.51 |
| A2U C39G C40G U41C | 0.26 |
| A3C A35U A45G U72C | 0.74 |
| A2U G6U U26C U54C A77U | 0.3 |
| A2G G30U U67A U78C | 0.07 |
| A2G U41A G53C U60C U66A A75G | 0.18 |
| A2G U25C U43A A47U A56G U78A | 0.17 |
| A3C A13G A20U C40U A57G | 0.1 |
| A2U G9A A13U A18U C38U A56U | 0.11 |
| A3C G6A C62U | 0.05 |
| A2U G9A U51C | 0.44 |
| A2U G7U U43C U69C U78A | 0.05 |
| A3C A20U U60C U72A A77G U78C | 0.21 |
| A2G U76A C81U | 0.73 |
| A2G U25C U41C | 0.46 |
| A2U A21G C23U U54C U72C | 0.59 |
| A2U A5G U43G | 0.41 |

| Variant | self-cleavage |
| --- | --- |
| A2U A13G A21G G33U U43C A45G U74C | 0.05 |
| A2U A21U A28U | 0.18 |
| A2G U41C U43C A64G | 0.4 |
| A2G U51C A75U | 0.19 |
| A3C G7A G9U C38U U49C U78C | 0.05 |
| A2U G9A A18U A56U U60C | 0.05 |
| A2U C11U U43C C50U A56U A75U | 0.03 |
| A2G U25G A57G U80C | 0.56 |
| A2U A3G U72A | 0.81 |
| A2G U25C A56G A57G U80C | 0.29 |
| A2U A13G C37A U60A | 0.16 |
| A3C C37G A45C U48C | 0.08 |
| A2U A13G A21G U31C A56G U67A | 0.07 |
| A2U A20U G73A | 0.64 |
| A2U A35U U41C A65G U74A | 0.23 |
| A3C A28G A35U U69C A75G | 0.17 |
| A3C C34U C39U U51C U74A A77U | 0.62 |
| A2U A5G G33C A35U U51C U72A A77C | 0.14 |
| A2U G8U A15U U25C | 0.25 |
| A2U G8U A15U U25C U80C | 0.32 |
| A2U A5U A35G | 1.17 |
| A2U A3U U43C A45U G52C | 0.16 |
| A2U G10A U51C G55C U67C G70C | 0.11 |
| A2U C12U U58C A64U | 0.21 |

| Variant | self-cleavage |
| --- | --- |
| A2U A20U U26C | 0.2 |
| A2G U31C A35G A47G U72C | 0.31 |
| A2U C14U A56G | 1.1 |
| A3C G8A G10A A15G A21U U48C A65U | 0.07 |
| A2G U31C U41G A45G A56G | 0 |
| A2G G16A A20U C40G U69A | 0.21 |
| A2U A15G A21G U72C | 0.83 |
| A2U A21G U25C G36U A45U | 0.25 |
| A2U G6A A35G U54A A57G | 0.49 |
| A2U A20U U66C | 0.31 |
| A2U U25A A35G | 0.35 |
| A2U G7A U51C | 0.41 |
| A3C G8A U54C | 0.5 |
| A2U U26A U54C | 0.62 |
| A2G U26C G36A | 0.56 |
| A2U A3G A13U U58A A64G U80A C81U | 0.22 |
| A3C A28G G42A A57G C68G U69C | 0.37 |
| A2U A15U C32A U49A A56G | 0.06 |
| A2U A3G A45G U72A U80A | 0.89 |
| A2U G9C A13G U66C | 0.06 |
| A3C C12U U31A U48A U49A | 0.3 |
| A2U A13G A28G | 0.45 |
| A2U A15C A35G U43A U48A U67C U76A | 0.14 |
| A2G U48C A56G U80C | 0.3 |

| Variant | self-cleavage |
| --- | --- |
| A3C A13G U26C | 0.47 |
| A3C G7C U54C G63U | 0.12 |
| A2U A20U A57G | 0.17 |
| A2U A56G G61C U74C | 0.27 |
| A2U A15C C17A U25C U43C U69A | 0.06 |
| A2U A13G U31C U43C U60C | 0.23 |
| A2G U26C U74C | 0.72 |
| A2U A65U U66C U72A U80C | 0.37 |
| A2U U31A A47G U74C A75U | 1.05 |
| A2G U43A A77U | 1.04 |
| A2U A18U A20G U74C | 0.52 |
| A2U U26A A28G U69C | 0.22 |
| A2G U26A A28G | 0.23 |
| A2U A18U U26C G30A U41A A64U U72C | 0.05 |
| A2G U41C U67C | 0.16 |
| A2G U69C U72A | 0.2 |
| A2U U41C A47U | 0.8 |
| A3C A5G G22A A47G A56G U80C | 0.6 |
| A2G U25G U43A G52A C71U A75G | 0.02 |
| A2U C12A A47G | 0.48 |
| A3C G9A A18U A20G A21G A35G U78C | 0.57 |
| A2U A13G C37A U69A | 0.14 |
| A3C C62U A64G | 0.28 |
